Measurements: the supplement of paper PMC8728848
The list shows a part of the results.

How the values were obtained:
Assay in all cases: glycan array binding signal (z-score within array); higher = stronger binding
Details in all cases: glycan notation: IUPAC condensed, linker removed
[1] = target: Neu5Ac(a2-6)Gal(b1-4)GlcNAc(b1-2)Man(a1-3)[Neu5Ac(a2-3)Gal(b1-4)GlcNAc(b1-2)Man(a1-6)]Man(b1-4)GlcNAc(b1-4)GlcNAc
In short: (§1)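 Arrays were curated from the Consortium for Functional Glycomics database, 3228 in total, and kept only where the protein sequence was available. Binding is expressed as a within-array Z-score. This score was averaged across arrays of the same protein sequence at different concentrations or buffers and across linkers, and negative values can be read as non-binding.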

[2] = target: Neu5Ac(a2-6)Gal(b1-4)GlcNAc(b1-2)Man(a1-3)[Neu5Ac(a2-6)Gal(b1-4)GlcNAc(b1-2)Man(a1-6)]Man(b1-4)GlcNAc(b1-4)GlcNAc
In short: as §1

[3] = target: Neu5Ac(a2-6)Gal(b1-4)GlcNAc(b1-2)Man(a1-3)[Neu5Ac(a2-6)Gal(b1-4)GlcNAc(b1-2)Man(a1-6)]Man(b1-4)GlcNAc(b1-4)[Fuc(a1-6)]GlcNAc
In short: as §1

[4] = target: Neu5Ac(a2-6)Gal(b1-4)GlcNAc(b1-2)Man(a1-6)Man(b1-4)GlcNAc(b1-4)GlcNAc
In short: as §1

[5] = target: Neu5Ac(a2-6)Gal(b1-4)GlcNAc(b1-2)Man(a1-6)[Gal(b1-4)GlcNAc(b1-2)Man(a1-3)]Man(b1-4)GlcNAc(b1-4)GlcNAc
In short: as §1

[6] = target: Neu5Ac(a2-6)Gal(b1-4)GlcNAc(b1-2)Man(a1-6)[GlcNAc(b1-2)Man(a1-3)]Man(b1-4)GlcNAc(b1-4)GlcNAc
In short: as §1

[7] = target: Neu5Ac(a2-6)Gal(b1-4)GlcNAc(b1-2)Man(a1-6)[Man(a1-3)]Man(b1-4)GlcNAc(b1-4)GlcNAc
In short: as §1

[8] = target: Neu5Ac(a2-6)Gal(b1-4)GlcNAc(b1-2)[Neu5Ac(a2-6)Gal(b1-4)GlcNAc(b1-4)]Man(a1-3)[GlcNAc(b1-4)][Neu5Ac(a2-6)Gal(b1-4)GlcNAc(b1-2)[Neu5Ac(a2-6)Gal(b1-4)GlcNAc(b1-6)]Man(a1-6)]Man(b1-4)GlcNAc(b1-4)GlcNAc
In short: as §1

[9] = target: Neu5Ac(a2-6)Gal(b1-4)GlcNAc(b1-2)[Neu5Ac(a2-6)Gal(b1-4)GlcNAc(b1-4)]Man(a1-3)[GlcNAc(b1-4)][Neu5Ac(a2-6)Gal(b1-4)GlcNAc(b1-4)Man(a1-6)]Man(b1-4)GlcNAc(b1-4)GlcNAc
In short: as §1

[10] = target: Neu5Ac(a2-6)Gal(b1-4)GlcNAc(b1-2)[Neu5Ac(a2-6)Gal(b1-4)GlcNAc(b1-6)]Man(a1-6)[Neu5Ac(a2-6)Gal(b1-4)GlcNAc(b1-2)Man(a1-3)][GlcNAc(b1-4)]Man(b1-4)GlcNAc(b1-4)GlcNAc
In short: as §1

[11] = target: Neu5Ac(a2-6)Gal(b1-4)GlcNAc(b1-3)Gal(b1-3)GlcNAc
In short: as §1

[12] = target: Neu5Ac(a2-6)Gal(b1-4)GlcNAc(b1-3)Gal(b1-4)GlcNAc
In short: as §1

[13] = target: Neu5Ac(a2-6)Gal(b1-4)GlcNAc(b1-3)Gal(b1-4)GlcNAc(b1-2)Man(a1-3)[Neu5Ac(a2-6)Gal(b1-4)GlcNAc(b1-3)Gal(b1-4)GlcNAc(b1-2)Man(a1-6)]GalNAc
In short: as §1

[14] = target: Neu5Ac(a2-6)Gal(b1-4)GlcNAc(b1-3)Gal(b1-4)GlcNAc(b1-3)Gal(b1-4)GlcNAc
In short: as §1

[15] = target: Neu5Ac(a2-6)Gal(b1-4)GlcNAc(b1-3)Gal(b1-4)GlcNAc(b1-3)Gal(b1-4)GlcNAc(b1-2)Man(a1-3)[Neu5Ac(a2-6)Gal(b1-4)GlcNAc(b1-3)Gal(b1-4)GlcNAc(b1-3)Gal(b1-4)GlcNAc(b1-2)Man(a1-6)]GalNAc
In short: as §1

[16] = target: Neu5Ac(a2-6)Gal(b1-4)GlcNAc(b1-3)Gal(b1-4)GlcNAc(b1-3)GalNAc
In short: as §1

[17] = target: Neu5Ac(a2-6)Gal(b1-4)GlcNAc(b1-3)Gal(b1-4)GlcNAc(b1-3)[Neu5Ac(a2-6)Gal(b1-4)GlcNAc(b1-3)Gal(b1-4)GlcNAc(b1-6)]GalNAc
In short: as §1

[18] = target: Neu5Ac(a2-6)Gal(b1-4)GlcNAc(b1-3)Gal(b1-4)GlcNAc(b1-6)[Gal(b1-3)]GalNAc
In short: as §1

[19] = target: Neu5Ac(a2-6)Gal(b1-4)GlcNAc(b1-3)Gal(b1-4)[Fuc(a1-3)]GlcNAc(b1-3)Gal(b1-4)[Fuc(a1-3)]GlcNAc
In short: as §1

[20] = target: Neu5Ac(a2-6)Gal(b1-4)GlcNAc(b1-3)GalNAc
In short: as §1

[21] = target: Neu5Ac(a2-6)Gal(b1-4)GlcNAc(b1-3)[Neu5Ac(a2-6)Gal(b1-4)GlcNAc(b1-6)]GalNAc
In short: as §1

[22] = target: Neu5Ac(a2-6)Gal(b1-4)GlcNAc(b1-6)GalNAc
In short: as §1

[23] = target: Neu5Ac(a2-6)Gal(b1-4)GlcNAc(b1-6)[Gal(b1-3)GlcNAc(b1-3)]Gal(b1-4)Glc
In short: as §1

[24] = target: Neu5Ac(a2-6)Gal(b1-4)GlcNAc(b1-6)[Gal(b1-3)]GalNAc
In short: as §1

[25] = target: Neu5Ac(a2-6)Gal(b1-4)GlcNAc6S
In short: as §1

Neu5Ac(a2-6)GalNAc = target: Neu5Ac(a2-6)GalNAc
In short: as §1

[26] = target: Neu5Ac(a2-6)GalNAc(b1-4)GlcNAc
In short: as §1

[27] = target: Neu5Ac(a2-6)GalNAc(b1-4)GlcNAc6S
In short: as §1

[28] = target: Neu5Ac(a2-6)GlcNAc(b1-4)GlcNAc
In short: as §1

[29] = target: Neu5Ac(a2-6)GlcNAc(b1-4)GlcNAc(b1-4)GlcNAc
In short: as §1

B1: PNGase F (Flavobacterium meningosepticum) (protein)
chain: GIPAPADNTVNIKTFDKVKNAFGDGLSQSAEGTFTFPADVTAVKTIKMFIKNECPNKTCDEWDRYANVYVKNKTTGEWYEIGRFITPYWVGTEKLPRGLEIDVTDFKSLLSGNTELKIYTETWLAKGREYSVDFDIVYGTPDYKYSAVVPVVQYNKSSIDGVPYGKAHTLALKKNIQLPTNTEKAYLRTTISGWGHAKPYDAGSRGCAEWCFRTHTIAINNSNTFQHQLGALGCSANPINNQSPGNWTPDRAGWCPGMAVPTRIDVLNNSLIGSTFSYEYKFQNWTNNGTNGDAFYAISSFVIAKSNTPISAPVVTNLDPHHHHHH
- glycan array binding signal (z-score) [1]: -0.289
- glycan array binding signal (z-score) [2]: -0.391
- glycan array binding signal (z-score) [3]: -0.324
- glycan array binding signal (z-score) [4]: -0.334
- glycan array binding signal (z-score) [5]: -0.495
- glycan array binding signal (z-score) [6]: -0.388
- glycan array binding signal (z-score) [7]: -0.337
- glycan array binding signal (z-score) [8]: -0.274
- glycan array binding signal (z-score) [9]: 0.013
- glycan array binding signal (z-score) [10]: -0.17
- glycan array binding signal (z-score) [11]: -0.301
- glycan array binding signal (z-score) [12]: -0.101
- glycan array binding signal (z-score) [13]: -0.273
- glycan array binding signal (z-score) [14]: -0.395
- glycan array binding signal (z-score) [15]: 0.401
- glycan array binding signal (z-score) [16]: -0.282
- glycan array binding signal (z-score) [17]: -0.278
- glycan array binding signal (z-score) [18]: -0.378
- glycan array binding signal (z-score) [19]: -0.288
- glycan array binding signal (z-score) [20]: -0.208
- glycan array binding signal (z-score) [21]: -0.391
- glycan array binding signal (z-score) [22]: 0.397
- glycan array binding signal (z-score) [23]: -0.207
- glycan array binding signal (z-score) [24]: -0.107
- glycan array binding signal (z-score) [25]: -0.286
- glycan array binding signal (z-score) (Neu5Ac(a2-6)GalNAc): -0.276
- glycan array binding signal (z-score) [26]: -0.408
- glycan array binding signal (z-score) [27]: -0.194
- glycan array binding signal (z-score) [28]: -0.428
- glycan array binding signal (z-score) [29]: 0.094
